Data reported in ChEMBL document CHEMBL1201862, “PubChem BioAssay data set” (2004).
Counter-ions that a name gives are not always drawn.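 The compound was tested at five concentrations on cells cultured in 96-well plates, with a 48-hour exposure period. At the GI50, growth is halved.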 The source made the active and inactive calls. Cut-off read from the data, not from the text of the source: active = GI50 up to about 1.1 µM and inactive = higher. Peptide text beside a SMILES is read from it. * marks the point of attachment. Boc = CC(C)(C)OC(=O)*

system: NCI-H322M; experiment: growth of human tumour cells (NCI), 48 h

Compound | GI50
CC(CO)[C@H]1OC(=O)C=C2[C@@]13O[C@@H]3[C@H]1OC(=O)[C@@]3(C)[C@H]4O[C@H]4C[C@@]2(C)[C@@H]13 (stereo not given in full) | inactive: 1.82 µM
CC(=O)CC(C)(C)NC(=O)[C@@]1(O)CC[C@H]2[C@@H]3CCC4=CC(=O)CC[C@@H]4[C@H]3CC[C@@]21C | inactive: > 100 µM
CC1C(=O)C(C)C(c2cccs2)N(N=O)C1c1cccs1 (stereo not given) | inactive: > 100 µM
CC1(C)CCc2cc3c(cc2O1)OC(C)(C)CC3=O | inactive: > 100 µM
CO[C@H]1[C@@H](O)[C@@H](C)O[C@@H](O[C@H]2CC[C@@]3(C)[C@H](CC[C@@H]4[C@@H]3CC[C@]3(C)[C@@H](C5=CC(=O)OC5)[C@@H](OC(C)=O)C[C@]43O)C2)[C@@H]1O [NERITALOSIDE] | active: 0.0409 µM
CCOC(=O)/C=C1/Nc2cc(F)c(F)cc2NC1=O | inactive: > 100 µM
O=C(NNC(=O)c1ccccc1O)c1cccs1 | inactive: 65.9 µM
Cc1cc(C)c2c(n1)S(=O)(=O)N(CCCN1CCN(c3cccc(C(F)(F)F)c3)CC1)C(C(=O)c1ccccc1)=C2O | inactive: 6.76 µM
CC(=O)NNc1ncc(C(=O)/C=C/c2ccccc2C)s1 | inactive: > 100 µM
CC#C[C@@]1(O)CCCCC1O (stereo not given in full) | inactive: > 100 µM
Cc1ccc(NC(=O)C2C(=O)C(=O)N(c3ccc(C)cc3)C2=O)cc1 (stereo not given) | inactive: > 100 µM
O=c1cc(N2CCCC2)[nH]c(=O)n1-c1cccc(C(F)(F)F)c1 | inactive: > 100 µM
c1ccc([P+](c2ccccc2)(c2ccccc2)C2c3ccccc3-c3ccccc32)cc1 | inactive: 1.96 µM
Nc1ccc(/N=N/c2ccc(/C=C/c3ccc(/N=N/c4ccc(N)c5ccc(S(=O)(=O)O)cc45)cc3S(=O)(=O)O)c(S(=O)(=O)O)c2)c2cc(S(=O)(=O)O)ccc12 | inactive: > 100 µM
C=CCN1/C(=C2\SC(=S)N(c3ccc(C)cc3)C2=O)Sc2c1ncn(C)c2=O | inactive: > 100 µM
CCO/C=C(\C(=O)OC)S(=O)(=O)c1ccc(C)cc1 | inactive: > 100 µM
CC(=O)NC1C(OCc2ccccc2)OC(CO)C(O)C1OC(C)C(=O)N[C@@H](C)C(=O)N[C@H](CCC(=O)OCCNc1c2ccccc2nc2cccc([N+](=O)[O-])c12)C(N)=O (stereo not given in full) | active: 0.00284 µM
C=C(CN(C)C)C(=O)c1cc(C)ccc1C | inactive: 25.6 µM
COc1ccc(N2C(=O)C3CC4=CC(=O)C[C@H]4[C@H]32)cc1 (stereo not given in full) | inactive: 49.2 µM
C1=Cc2nccc3cc4c(c(c23)N1)OCO4 | inactive: 4.58 µM
Cc1ccc2nc(CN(CCO)CCO)cc(=O)n2c1 | inactive: > 100 µM
O=S(=O)(NC1OCCCC1I)c1ccccc1 (stereo not given) | inactive: > 100 µM

Compound | GI50
COc1nc(C#CC2(O)CCCCC2)nc(OC)n1 | inactive: 15.4 µM
O=C1c2ccccc2C(=O)N1CCn1ccc(NC(c2ccccc2)(c2ccccc2)c2ccccc2)nc1=O | inactive: 25.6 µM
COc1cc2c(cc1OC)C(=O)/C(=C/c1ccc(O)cc1)CC2 | inactive: > 10 µM
Cc1ccc(-n2cc([Si](C)(C)C)nn2)s1 | inactive: 89.7 µM
N=C(N)c1ccc(-c2ccc(-c3ccc(C(=N)N)cc3)o2)cc1 [FURAMIDINE HYDROCHLORIDE] | inactive: 33.2 µM
O=C1CS(=O)(=O)C(c2cccc(Oc3ccccc3)c2)N1c1ccccc1 (stereo not given) | inactive: 34.8 µM
CC(=O)OC1(C)C(=O)OC/C2=C/CN(C)CCC(OC(=O)C(O)(C(C)Cl)CC1C)C2=O.c1ccccc1 (stereo not given) | inactive: > 100 µM
CC1CC(C)CN(S(=O)(=O)c2cc(Cl)c(Oc3ccc([N+](=O)[O-])cc3Cl)c(Cl)c2)C1 (stereo not given) | inactive: > 100 µM
CC(O)CCCCC(O)CCC[C@H](O)[C@H]1CCC([C@H]2CCC([C@@H](O)CCCCCCCCCCCCC3=C[C@H](C)OC3=O)O2)O1 (stereo not given in full) | inactive: 12.8 µM
CC(Cn1c2c(c3cc(O)ccc31)CCc1ccc(O)cc1-2)N(C)C (stereo not given) | inactive: 16.6 µM
COCOCCCCCO[Si](C)(C)C(C)(C)C | inactive: 33 µM
CCCCCOP(=O)(OCCCCC)C(NC(C)=O)(C(=O)OCC)C(F)(F)F (stereo not given) | inactive: > 100 µM
CCOC(=O)Nc1ccc(C)c(NC(=O)OCC)c1 | inactive: > 100 µM
C=CCn1c(S)nnc1C12CC3CC(CC(C3)C1)C2 | inactive: > 100 µM
CC1(C)CC(=O)C(C(=O)Nc2cccs2)=C(O)C1 | inactive: 57.3 µM
COC(=O)c1sc2nc(Nc3ccccc3)/c(=N\c3ccccc3)sc2c1C | inactive: > 100 µM
CC(C)(C)[Si](C)(C)OCC1OC(n2ccc(=O)[nH]c2=O)C(O[Si](C)(C)C(C)(C)C)[C@@]12O[C@H]2C(N)=O (stereo not given in full) | inactive: 19.1 µM
O=C(NCCCCCCCCNC(=O)c1cccc2ccccc12)c1cccc2ccccc12 | inactive: > 80.5 µM
O=C(O)/C(Cl)=C(\Cl)C(=O)c1ccccc1 | inactive: > 100 µM
COc1ccc2oc(=O)c(-c3nc4ccccc4s3)cc2c1 | inactive: 21.1 µM
CC1OC(CC2C=CCc3c(O)c4c(c(O)c32)C(=O)c2ccccc2C4=O)CC(NC(=O)C(F)(F)F)C1O (stereo not given) | inactive: 5.86 µM
O=C(Nn1cc(F)c(=O)[nH]c1=O)C12CC3CC(CC(C3)C1)C2 | inactive: 14.5 µM

Compound | GI50
CC(C)C1=C2CCC3(C)C(CCC4C5C6OCC5(CCC6(C)C)CCC43C)C2(C)CC1 (stereo not given) | inactive: 38.8 µM
Cc1ccc(OCCn2cc(Nc3ccccc3)c(=O)n(CCOc3ccc(C)cc3)c2=O)cc1 | inactive: > 100 µM
Cc1cc(C)c2c(c1)CSCc1cc(C)cc(C)c1-2 | inactive: 54 µM
CC(NC(=O)OC(C)(C)C)C(=O)NC(Cc1ccccc1)C(=O)NCC(=O)O (stereo not drawn) (Boc-Ala-Phe-Gly-OH; configuration not given here) | inactive: > 100 µM
O=NN(Cc1ccc(Cl)cc1)C(C(=O)O)c1ccccc1 (stereo not given) | inactive: > 100 µM
COc1ccc(CCN2CCC(C#N)(c3ccc(OC)c(OC)c3)CC2)cc1OC | inactive: > 100 µM
C=C(C)[C@@H](O)[C@H](O)C[C@H](C)C1CC[C@]2(C)C1=CC[C@@H]1[C@@]3(C)CC[C@@H](OC(C)=O)C(C)(C)[C@@H]3C[C@@H](OC3OC(COC(C)=O)C(O)C(O)C3O)[C@]12C (stereo not given in full) | inactive: 2.18 µM
Cc1cccc2c1C(=O)OC2(C)c1cccc2ccccc12 (stereo not given) | inactive: 44.2 µM
COC(=O)C(Cc1ccc(N(C)C)cc1)(NC(=O)c1ccccc1)P(=O)(OC)OC (stereo not given) | inactive: > 100 µM
Cc1cc(C)c2c(c1)CC1(Cc3c(ccc(C)c3C)C1=O)C2=O (stereo not given) | inactive: 84.7 µM
CCc1cccc(C)c1N1C(=O)C(=O)C(c2nc3ccccc3o2)C(=O)C1=O | inactive: > 100 µM
O=C1OC(c2ccc(Cl)c3ccccc23)c2ccccc21 (stereo not given) | inactive: > 100 µM
CC[C@](O)(CC(=O)O[C@H]1C(=O)O[C@@H]2C[C@H]3C(C)=CC(=O)[C@@H](O)[C@]3(C)[C@H]3[C@@]4(O)OC[C@]32[C@@H]1[C@@H](C)[C@H]4O)C(C)C | active: < 0.01 µM
NCC(=O)NC1(C(=O)O)CCCC1 (HELM PEPTIDE1{G.[O=C(O)C1(N[*:1])CCCC1]}$$$$V2.0) | inactive: > 100 µM
CO/C(N)=C(C#N)/N=C/c1cccnc1 | inactive: > 100 µM
CC(C)(O)c1cc2c(cc1C(C)(C)O)-c1ccccc1-2 | inactive: > 100 µM
O=C(N/C(=C\c1ccccc1)c1nc2ccccc2c(=O)o1)c1ccccc1 | inactive: > 100 µM
CCOC(=O)c1sc2nc(SC)nc3c2c1NCN3C1CC1 | inactive: > 100 µM
O=C(O)CCc1ccc2c(c1)CC1(Cc3ccccc3C1)C2 | inactive: > 100 µM
CC1(C)SC2C(NC(=O)C(C(=O)O)c3ccccc3)C(=O)N2C1C(=O)O (stereo not given) | inactive: > 100 µM
COc1cc(/C=C2\C[C@H]3[C@@H]4CC=C5C[C@@H](O)CC[C@]5(C)[C@H]4CC[C@]3(C)C2=O)cc(OC)c1OC | inactive: 41.1 µM
S=C(Nc1ccccc1)c1ccc(CN2CCCCC2)s1 | inactive: 28.6 µM

Compound | GI50
CCC(C(=O)O)c1ccc(OC)cc1 (stereo not given) | inactive: > 100 µM
CCNC1=C(NC(=O)c2ccc(OC)cc2)C(=O)c2ccccc2C1=O | inactive: > 100 µM
CN(C)CCNC(=O)c1cccc2c1Oc1c(cccc1[N+](=O)[O-])O2 | inactive: 3.85 µM
COC(=O)C1CSC(c2csc(CCN)n2)=N1 (stereo not given) | inactive: > 100 µM
CC1=C/C(=N\O)C(C(O)(C(F)(F)F)C(F)(F)F)C(C)(C)C1 (stereo not given) | inactive: > 10 µM
COC(=O)CCC(=O)N1CC1C (stereo not given) | inactive: > 100 µM
O=c1c([Se]c2coc3ccccc3c2=O)coc2ccccc12 | inactive: 3.33 µM
COC(=O)CCC(NC(=S)N/N=C(\C)c1ccc[nH]1)C(=O)OC (stereo not given) | inactive: > 100 µM
OCC(O)C1OC2CC1Nc1ccccc1N2 (stereo not given) | inactive: > 100 µM
O=[N+]([O-])/C(C(Cl)=C(Cl)Cl)=C(\Nc1ccccc1)n1nnc2ccccc21 | inactive: 33.9 µM
N#Cc1ccc(/C=C(/C(=O)c2ccccc2)c2ccccc2)cc1 | inactive: 14.5 µM
CC(C)NC(=O)OCCN=C1c2ccccc2C(Br)C(Br)c2ccccc21 (stereo not given) | inactive: 30.9 µM
O=S1(=O)C[C@H](O)[C@H](O)CS1 | inactive: > 100 µM
CC(=O)OCC(=O)O[C@@H]1[C@H]2[C@@H](OC(=O)c3ccccc3)[C@@H](C)C[C@]2(O)[C@H](OC(C)=O)[C@@]2(C)C(OC(C)=O)[C@]1(OC(C)=O)C[C@H]1C(=O)C(C)(C)C[C@@H]12 (stereo not given in full) | inactive: > 50 µM
CC12O[Te]34OC1(C)C(C)(O3)C2(C)O4 | inactive: 12.5 µM
CCN(CC)c1ccc(/C=C2/C[N+](C)(C)C/C(=C/c3ccc(N(CC)CC)cc3)C2=O)cc1 | inactive: 6.12 µM
COc1cc(/C=C2\C[C@H]3[C@@H]4CC=C5C[C@@H](N6CCCC6)CC[C@]5(C)[C@H]4CC[C@]3(C)[C@H]2OC(C)=O)cc(OC)c1OC | inactive: 15.4 µM
[O-]/[N+](=N/c1ncc(-c2ccccc2)cn1)c1ncc(-c2ccccc2)cn1 | inactive: 35.9 µM
CC(C)OP(=O)(OC(C)C)c1ccc2c(c1)OCCOCCOCCOCCO2 | inactive: > 100 µM
